Test results taken from the supplement of paper PMC6206098.
± gives the uncertainty stated by the source. The sequences are guide strands of siRNAs; only the seed at positions 2 to 7 varies.

Assays:
H460 = assay: cell viability relative to lipid-only control; higher = less toxic; conditions: concentration: 10 nM; 96 h; Homo sapiens
M565 = assay: as above; conditions: concentration: 10 nM; 96 h; Mus musculus
HeyA8 = assay: as above; conditions: concentration: 10 nM; 96 h; Homo sapiens
3LL = assay: cell viability relative to siNT1 control; HeyA8 human ovarian and H460 human lung cancer; M565 mouse liver and 3LL mouse lung cancer; siNT1 is a non-toxic control siRNA; higher = less toxic; conditions: concentration: 10 nM; 96 h; Mus musculus
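For cell viability relative to lipid-only control in this document: reverse lipid transfection in 384-well plates, in triplicate, of duplexes on a non-toxic 19mer backbone with passenger strand 2′-O-methylated at positions 1 and 2, luminescence viability read-out.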
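For cell viability relative to siNT1 control in this document: Luminescence-based viability of cells reverse transfected in 384-well plates with lipid-complexed siRNAs built on a non-toxic 19mer backbone whose passenger strand carries 2′-O-methyl groups at positions 1 and 2, triplicates.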

UUCGUCUACAUGUAAACCAAA
cell viability (H460): 51.1 ± 4.9%
cell viability (M565): 53 ± 7.4%
cell viability (HeyA8): 39.4 ± 4.1%
cell viability (3LL): 68.4 ± 16%

UCGUUUGACAUGUAAACCAAA
cell viability (H460): 86.4 ± 17%
cell viability (M565): 80.2 ± 7.3%
cell viability (HeyA8): 76.6 ± 3.6%
cell viability (3LL): 88.1 ± 10%

UGGUCUGACAUGUAAACCAAA
cell viability (H460): 25.1 ± 1.6%
cell viability (M565): 79.4 ± 14%
cell viability (HeyA8): 14.1 ± 1.3%
cell viability (3LL): 70.3 ± 3.8%

UAAGUAAACAUGUAAACCAAA
cell viability (H460): 66.5 ± 8%
cell viability (M565): 90.9 ± 5.2%
cell viability (HeyA8): 95.2 ± 13%
cell viability (3LL): 96.3 ± 2.1%

UCUCGAAACAUGUAAACCAAA
cell viability (H460): 48.4 ± 5.1%
cell viability (M565): 71.1 ± 5.7%
cell viability (HeyA8): 87 ± 4.2%
cell viability (3LL): 88.2 ± 13%

UUGUACCACAUGUAAACCAAA
cell viability (H460): 49.8 ± 2.8%
cell viability (M565): 24.7 ± 2.4%
cell viability (HeyA8): 62.6 ± 1.3%
cell viability (3LL): 16.7 ± 4%

UAGAAUAACAUGUAAACCAAA
cell viability (H460): 66.6 ± 1%
cell viability (M565): 76.3 ± 2.7%
cell viability (HeyA8): 87.7 ± 8.7%
cell viability (3LL): 87.1 ± 11%

UGUGGACACAUGUAAACCAAA
cell viability (H460): 36.3 ± 3.8%
cell viability (M565): 7.49 ± 2.5%
cell viability (HeyA8): 34.5 ± 2.5%
cell viability (3LL): 58 ± 4.4%

UCUUGUCACAUGUAAACCAAA
cell viability (H460): 60.2 ± 8.4%
cell viability (M565): 83.3 ± 14%
cell viability (HeyA8): 75.8 ± 2.1%
cell viability (3LL): 97.3 ± 14%

UUCUCGUACAUGUAAACCAAA
cell viability (H460): 59.5 ± 6.3%
cell viability (M565): 69.4 ± 5.1%
cell viability (HeyA8): 73.1 ± 1.7%
cell viability (3LL): 61 ± 9.8%

UCAGAACACAUGUAAACCAAA
cell viability (H460): 63.6 ± 15%
cell viability (M565): 42.9 ± 1.8%
cell viability (HeyA8): 30.4 ± 2.5%
cell viability (3LL): 87.9 ± 5.4%

UGAUCCUACAUGUAAACCAAA
cell viability (H460): 33.8 ± 5.1%
cell viability (M565): 19 ± 3.5%
cell viability (HeyA8): 52.2 ± 2.3%
cell viability (3LL): 19.7 ± 2.7%

UUUGUUGACAUGUAAACCAAA
cell viability (H460): 89.1 ± 8.7%
cell viability (M565): 71.5 ± 2%
cell viability (HeyA8): 84 ± 7.5%
cell viability (3LL): 101 ± 10%

UCCUCCUACAUGUAAACCAAA
cell viability (H460): 61.9 ± 6.7%
cell viability (M565): 51.8 ± 7.2%
cell viability (HeyA8): 62.3 ± 1.1%
cell viability (3LL): 74 ± 25%

UAUACUAACAUGUAAACCAAA
cell viability (H460): 92.3 ± 18%
cell viability (M565): 107 ± 15%
cell viability (HeyA8): 93.7 ± 2%
cell viability (3LL): 106 ± 11%

UCGAGGAACAUGUAAACCAAA
cell viability (H460): 70.4 ± 14%
cell viability (M565): 62.8 ± 6.3%
cell viability (HeyA8): 82 ± 5.2%
cell viability (3LL): 92.8 ± 20%

UCUUUUUACAUGUAAACCAAA
cell viability (H460): 57 ± 6.4%
cell viability (M565): 81.2 ± 7.7%
cell viability (HeyA8): 73.3 ± 4.9%
cell viability (3LL): 85.2 ± 9.8%

UGUAGGGACAUGUAAACCAAA
cell viability (H460): 32.9 ± 7.8%
cell viability (M565): 34 ± 6.5%
cell viability (HeyA8): 8.08 ± 1%
cell viability (3LL): 36.9 ± 7.4%

UAACCCUACAUGUAAACCAAA
cell viability (H460): 80.1 ± 14%
cell viability (M565): 53.8 ± 3.1%
cell viability (HeyA8): 66.7 ± 6%
cell viability (3LL): 82.9 ± 6.3%

UCAAGUAACAUGUAAACCAAA
cell viability (H460): 69.2 ± 5.5%
cell viability (M565): 58.7 ± 2.6%
cell viability (HeyA8): 84.8 ± 4.7%
cell viability (3LL): 97.7 ± 13%

UAUCAACACAUGUAAACCAAA
cell viability (H460): 65.6 ± 6.5%
cell viability (M565): 113 ± 15%
cell viability (HeyA8): 82.8 ± 5.9%
cell viability (3LL): 102 ± 4.3%

UUCACAAACAUGUAAACCAAA
cell viability (H460): 38.4 ± 6.5%
cell viability (M565): 88 ± 14%
cell viability (HeyA8): 89.1 ± 14%
cell viability (3LL): 101 ± 22%

UAUCAGAACAUGUAAACCAAA
cell viability (H460): 64.5 ± 4.2%
cell viability (M565): 88.1 ± 16%
cell viability (HeyA8): 92 ± 6.1%
cell viability (3LL): 118 ± 9.7%

UCAUGCGACAUGUAAACCAAA
cell viability (H460): 18.7 ± 0.78%
cell viability (M565): 53.6 ± 1%
cell viability (HeyA8): 63.3 ± 4.7%
cell viability (3LL): 78.8 ± 13%

UAAUGCCACAUGUAAACCAAA
cell viability (H460): 29.9 ± 2.4%
cell viability (M565): 5.78 ± 0.72%
cell viability (HeyA8): 39.8 ± 6.4%
cell viability (3LL): 7.2 ± 1.8%

UACGUCGACAUGUAAACCAAA
cell viability (H460): 79.7 ± 12%
cell viability (M565): 49.4 ± 3.9%
cell viability (HeyA8): 79.2 ± 6.6%
cell viability (3LL): 85.5 ± 10%

UCCUGUCACAUGUAAACCAAA
cell viability (H460): 27.3 ± 2.4%
cell viability (M565): 39.1 ± 4.9%
cell viability (HeyA8): 58.8 ± 3.3%
cell viability (3LL): 56.6 ± 13%

UGAGGCAACAUGUAAACCAAA
cell viability (H460): 58.2 ± 5.4%
cell viability (M565): 4.98 ± 1.1%
cell viability (HeyA8): 36.3 ± 1.3%
cell viability (3LL): 7.47 ± 0.38%

UAUCGUAACAUGUAAACCAAA
cell viability (H460): 112 ± 14%
cell viability (M565): 94 ± 6.9%
cell viability (HeyA8): 95.4 ± 8.9%
cell viability (3LL): 122 ± 20%

UUACAGGACAUGUAAACCAAA
cell viability (H460): 57.1 ± 6.3%
cell viability (M565): 72.2 ± 1.9%
cell viability (HeyA8): 82.2 ± 5.3%
cell viability (3LL): 87.8 ± 2.7%

UUAUUCCACAUGUAAACCAAA
cell viability (H460): 26 ± 2.1%
cell viability (M565): 33.1 ± 3.4%
cell viability (HeyA8): 43.4 ± 1.8%
cell viability (3LL): 11.7 ± 2.7%

UUCAAGGACAUGUAAACCAAA
cell viability (H460): 50.1 ± 3.1%
cell viability (M565): 26.2 ± 1.6%
cell viability (HeyA8): 65.6 ± 4.3%
cell viability (3LL): 42.8 ± 4.7%

UAAUACUACAUGUAAACCAAA
cell viability (H460): 107 ± 10%
cell viability (M565): 86.6 ± 5.7%
cell viability (HeyA8): 91.8 ± 9.8%
cell viability (3LL): 106 ± 4.5%

UCCCGCUACAUGUAAACCAAA
cell viability (H460): 47.3 ± 6.8%
cell viability (M565): 73.7 ± 25%
cell viability (HeyA8): 45.6 ± 1.6%
cell viability (3LL): 93.6 ± 8.1%

UGUUGACACAUGUAAACCAAA
cell viability (H460): 33.2 ± 7.3%
cell viability (M565): 14 ± 1.3%
cell viability (HeyA8): 21.9 ± 5.5%
cell viability (3LL): 66.1 ± 14%

UUCGCGCACAUGUAAACCAAA
cell viability (H460): 77.4 ± 8.7%
cell viability (M565): 70.6 ± 4.7%
cell viability (HeyA8): 63.4 ± 12%
cell viability (3LL): 47.5 ± 4%

UGAGCCAACAUGUAAACCAAA
cell viability (H460): 63.2 ± 5.2%
cell viability (M565): 13.4 ± 1.8%
cell viability (HeyA8): 74.5 ± 4.2%
cell viability (3LL): 63.8 ± 15%

UCACAUAACAUGUAAACCAAA
cell viability (H460): 30.5 ± 3.8%
cell viability (M565): 74.4 ± 1.4%
cell viability (HeyA8): 89 ± 4.2%
cell viability (3LL): 95.8 ± 12%

UUACUCCACAUGUAAACCAAA
cell viability (H460): 18.4 ± 2.7%
cell viability (M565): 15 ± 3.1%
cell viability (HeyA8): 20 ± 0.59%
cell viability (3LL): 7.24 ± 3.9%

UGGUUAAACAUGUAAACCAAA
cell viability (H460): 74.3 ± 16%
cell viability (M565): 58.2 ± 10%
cell viability (HeyA8): 75.7 ± 5.5%
cell viability (3LL): 92.3 ± 12%

UGCGAAUACAUGUAAACCAAA
cell viability (H460): 85.8 ± 9.4%
cell viability (M565): 80.8 ± 2.8%
cell viability (HeyA8): 82.9 ± 6.6%
cell viability (3LL): 93.7 ± 13%

UUCUGGCACAUGUAAACCAAA
cell viability (H460): 22.1 ± 3.1%
cell viability (M565): 30 ± 9.2%
cell viability (HeyA8): 24.7 ± 4.9%
cell viability (3LL): 8.9 ± 0.63%

UGGUUUUACAUGUAAACCAAA
cell viability (H460): 74 ± 9.6%
cell viability (M565): 74 ± 8.4%
cell viability (HeyA8): 119 ± 2.5%
cell viability (3LL): 96.2 ± 10%

UCAACUAACAUGUAAACCAAA
cell viability (H460): 68 ± 11%
cell viability (M565): 68.8 ± 3.9%
cell viability (HeyA8): 77.5 ± 6.6%
cell viability (3LL): 93.1 ± 16%
